# Counter-ions that a name gives are not always drawn. The list shows a part of the results. Reporter virus signal in Vero cells at 10 µM drug, 24 h, as % of DMSO wells; lower = more inhibition (cell loss is not separated). No active / inactive call. One pass, one plate of the library.
# System: Rift Valley fever virus MP-12 vaccine strain (luciferase reporter) in Vero cells
# Assay: reporter virus infection (Renilla luciferase) relative to DMSO control (% of DMSO); higher = less inhibition of virus replication
# Conditions: 10 µM; time (h post infection): 24
# Experimental: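 Vero cells were pretreated for 1 h with 10 µM drug and kept in drug after infection with the reporter virus; luciferase at 24 h as % of DMSO wells. One pass, one plate of the library.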
row,SMILES,reporter virus infection
1,C[C@H](N[C@@H](CCc1ccccc1)C(=O)O)C(=O)N1CCC[C@H]1C(=O)O [Enalaprilat dihydrate],79
2,NS(=O)(=O)c1cc2c(cc1Cl)N=CNS2(=O)=O [Chlorothiazide],94.8
3,CCCNC(C)C(=O)Nc1ccccc1C (stereo not given) [Prilocaine],26.8
4,CC1(C)O[C@@H]2C[C@H]3[C@@H]4CCC5=CC(=O)C=C[C@]5(C)[C@H]4[C@@H](O)C[C@]3(C)[C@]2(C(=O)CO)O1 [Desonide],85.6
5,"CC(C)(C)C(=O)OCOP(=O)(COCCn1cnc2c(N)ncnc21)OCOC(=O)C(C)(C)C [Adefovir Dipivoxil (Preveon, Hepsera)]",34.2
6,CCCSc1ccc2[nH]c(NC(=O)OC)nc2c1 [Albendazole (Albenza)],20.7
7,CCN(CC)C(=S)SSC(=S)N(CC)CC [Disulfiram (Antabuse)],85.8
8,NCCCCCC(=O)O [Aminocaproic acid (Amicar)],80.2
9,CCC(=O)OCC(=O)[C@@]1(OC(=O)CC)[C@@H](C)C[C@H]2[C@@H]3CCC4=CC(=O)C=C[C@]4(C)[C@@]3(F)[C@@H](O)C[C@@]21C [Betamethasone Dipropionate (Diprolene)],101
10,CN(C)CCc1c[nH]c2ccc(Cn3cncn3)cc12 [Rizatriptan Benzoate (Maxalt)],73.9
11,COc1ccc(Cl)cc1C(=O)NCCc1ccc(S(=O)(=O)NC(=O)NC2CCCCC2)cc1 [Glyburide (Diabeta)],101
12,Nc1ccn([C@@H]2CS[C@H](CO)O2)c(=O)n1 [Lamivudine (Epivir)],102
13,CN(C)C(=O)Oc1ccc[n+](C)c1 [Pyridostigmine Bromide (Mestinon)],50.7
14,CCCC(CCC)C(=O)O [Divalproex sodium],107
15,CCCCC(=O)O[C@]1(C(=O)CO)[C@@H](C)C[C@H]2[C@@H]3CCC4=CC(=O)C=C[C@]4(C)[C@@]3(F)[C@@H](O)C[C@@]21C [Betamethasone valerate (Betnovate)],101
16,C[C@]12C=CC(=O)C=C1CC[C@@H]1[C@@H]2C(=O)C[C@@]2(C)[C@H]1CC[C@]2(O)C(=O)CO [Prednisone (Adasone)],73
17,"Cn1ccnc1S [Methimazole (Tapazole, Northyx)]",68.4
18,C[C@]12CCC(=O)C=C1CC[C@@H]1[C@@H]2[C@@H](O)C[C@@]2(C)[C@H]1CC[C@]2(O)C(=O)CO [Hydrocortisone (Cortisol)],89.6
19,C=CC1=C(C(=O)O)N2C(=O)[C@@H](NC(=O)/C(=N\O)c3csc(N)n3)[C@H]2SC1 [Cefdinir (Omnicef)],46.8
20,C[C@]12CC[C@@H]3c4ccc(O)cc4CC[C@H]3[C@@H]1CCC2=O [Estrone],84

row,SMILES,reporter virus infection
1,O=C(N[C@H](CO)[C@H](O)c1ccc([N+](=O)[O-])cc1)C(Cl)Cl [Chloramphenicol (Chloromycetin)],73.3
2,Nc1ccc(S(N)(=O)=O)cc1 [Sulfanilamide],79.5
3,COC(=O)[C@@H]1CC2=CC(=O)CC[C@]2(C)[C@@]23O[C@@H]2C[C@@]2(C)[C@@H](CC[C@@]24CCC(=O)O4)[C@H]13 [Eplerenone],84.1
4,CC(C)[N+]1(C)[C@@H]2CC[C@H]1C[C@@H](OC(=O)C(CO)c1ccccc1)C2 (stereo not given in full) [Ipratropium bromide],92.4
5,NC(=O)N/N=C/c1ccc([N+](=O)[O-])o1 [Nitrofurazone (Nitrofural)],44.4
6,CC[C@H]1OC(=O)[C@H](C)[C@@H](O[C@H]2C[C@@](C)(OC)[C@@H](O)[C@H](C)O2)[C@H](C)[C@@H](O[C@@H]2O[C@H](C)C[C@H](N(C)C)[C@H]2O)[C@](C)(O)C[C@@H](C)C(=O)[C@H](C)[C@@H](O)[C@]1(C)O [Erythromycin (E-Mycin)],78.5
7,O=c1[nH]cnc2c1ncn2[C@H]1CC[C@@H](CO)O1 [Didanosine (Videx)],79.4
8,CCC(C)(C)c1ccc(CC(C)CN2C[C@@H](C)O[C@@H](C)C2)cc1 (stereo not given in full) [Amorolfine Hydrochloride],107
9,Cn1c(=O)c2[nH]cnc2n(C)c1=O [Aminophylline (Truphylline)],74.2
10,Nc1nc(=O)[nH]cc1F [Flucytosine (Ancobon)],79
11,NS(=O)(=O)c1cc2c(cc1Cl)NCNS2(=O)=O [Hydrochlorothiazide],101
12,CC1(C)O[C@@H]2C[C@H]3[C@@H]4CCC5=CC(=O)C=C[C@]5(C)[C@@]4(F)[C@@H](O)C[C@]3(C)[C@]2(C(=O)CO)O1 [Triamcinolone Acetonide],69.9
13,"CCCCCCCCCCC[C@@H](C[C@@H]1OC(=O)[C@H]1CCCCCC)OC(=O)[C@H](CC(C)C)NC=O [Orlistat (Alli, Xenical)]",82.4
14,"CCCCC1C(=O)N(c2ccccc2)N(c2ccccc2)C1=O [Phenylbutazone (Butazolidin, Butatron)]",95.1
15,NS(=O)(=O)c1cc(C(=O)O)c(NCc2ccco2)cc1Cl [Furosemide (Lasix)],34
16,CC(C(=O)O)c1ccc(-c2ccccc2)c(F)c1 (stereo not given) [Flurbiprofen (Ansaid)],81.1
17,CC1=C(/C=C/C(C)=C/C=C/C(C)=C/C(=O)O)C(C)(C)CCC1 [Tretinoin (Aberela)],88.4
18,Nc1nc(=O)n([C@@H]2CS[C@H](CO)O2)cc1F [Emtricitabine (Emtriva)],89
19,C#C[C@]1(O)CC[C@H]2[C@@H]3CCC4=CC(=O)CC[C@@H]4[C@H]3CC[C@@]21CC [Levonorgestrel (Levonelle)],105
20,C[C@]12CC[C@@H]3c4ccc(O)cc4CC[C@H]3[C@@H]1CC[C@@H]2O [Estradiol],98.2

# From the supplement of paper PMC4495339
